This note sets out measurements from publication PMC6286407.

These are yes or no findings as the source states them, for the method shown. In cells and extracts the contact can be indirect. Some binding calls cover weakened binding; strength is not graded here. Where a sequence is shown, tags or fusion partners need not be part of it.

The target in one assay is T1, GST-CC2D1B (human) (UniProt Q5T0F9).
T1 sequence: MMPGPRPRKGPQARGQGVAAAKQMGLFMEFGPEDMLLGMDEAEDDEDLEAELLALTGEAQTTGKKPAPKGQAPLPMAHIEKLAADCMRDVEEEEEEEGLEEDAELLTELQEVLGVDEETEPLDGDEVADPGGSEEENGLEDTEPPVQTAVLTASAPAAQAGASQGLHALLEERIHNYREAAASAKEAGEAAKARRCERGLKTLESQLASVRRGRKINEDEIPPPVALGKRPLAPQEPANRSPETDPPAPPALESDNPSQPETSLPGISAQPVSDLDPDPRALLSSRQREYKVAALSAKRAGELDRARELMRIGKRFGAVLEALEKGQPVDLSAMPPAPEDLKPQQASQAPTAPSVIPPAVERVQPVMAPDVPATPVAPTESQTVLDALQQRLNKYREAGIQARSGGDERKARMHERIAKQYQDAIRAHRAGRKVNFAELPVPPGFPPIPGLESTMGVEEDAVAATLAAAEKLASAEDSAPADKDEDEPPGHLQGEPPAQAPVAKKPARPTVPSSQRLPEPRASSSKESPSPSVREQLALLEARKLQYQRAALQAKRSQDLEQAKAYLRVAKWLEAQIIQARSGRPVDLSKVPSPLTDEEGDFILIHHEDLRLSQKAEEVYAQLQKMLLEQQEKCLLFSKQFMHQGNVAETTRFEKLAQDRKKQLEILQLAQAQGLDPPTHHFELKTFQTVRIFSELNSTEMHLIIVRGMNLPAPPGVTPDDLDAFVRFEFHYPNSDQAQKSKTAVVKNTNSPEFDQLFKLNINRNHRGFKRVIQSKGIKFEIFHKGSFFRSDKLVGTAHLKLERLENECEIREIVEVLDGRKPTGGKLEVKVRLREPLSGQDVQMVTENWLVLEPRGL
The assay is described as follows: pull-down; GST pull-down from lysates of 293T cells co-transfected with a pCAG-GST construct and a pCR3.1 HA-tagged construct; glutathione-sepharose beads 3 h at 4°C; 50 mM Tris pH 7.4, 150 mM NaCl, 5 mM EDTA, 5% glycerol, 1% Triton X-100 (wash 0.1%); western blot. On the technique in general: A western blot detects proteins with antibodies after separation by electrophoresis.

In assay [1] the target is T2, GST-CHMP4B (UniProt Q9H444).
T2 sequence: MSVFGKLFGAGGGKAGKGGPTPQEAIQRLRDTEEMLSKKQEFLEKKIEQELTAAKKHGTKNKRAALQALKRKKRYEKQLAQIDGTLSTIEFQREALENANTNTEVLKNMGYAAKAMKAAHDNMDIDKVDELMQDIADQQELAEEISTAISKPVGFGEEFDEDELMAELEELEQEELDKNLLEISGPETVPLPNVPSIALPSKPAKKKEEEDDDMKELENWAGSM
The assay is described as follows: pull-down; GST pull-down from cells co-expressing three proteins: GST-CHMP4B, HA-CHMP7 and YFP-CC2D1B.

Assay [2] concerns the target T3, GST-CC2D1B residues 528–594 (human) (UniProt Q5T0F9).
T3 sequence: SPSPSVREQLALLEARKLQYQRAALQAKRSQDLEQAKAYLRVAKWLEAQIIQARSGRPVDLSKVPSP
The assay is described as follows: pull-down; GST pull-down from lysates of 293T cells co-transfected with a pCAG-GST construct and a pCR3.1 HA-tagged construct; glutathione-sepharose beads 3 h at 4°C; 50 mM Tris pH 7.4, 150 mM NaCl, 5 mM EDTA, 5% glycerol, 1% Triton X-100 (wash 0.1%); western blot.

For assay [3], the target named is T2, GST-CHMP4B. The assay is described as above.
The target of a further assay is T4, GST-CHMP7 (UniProt Q8WUX9).
T4 sequence: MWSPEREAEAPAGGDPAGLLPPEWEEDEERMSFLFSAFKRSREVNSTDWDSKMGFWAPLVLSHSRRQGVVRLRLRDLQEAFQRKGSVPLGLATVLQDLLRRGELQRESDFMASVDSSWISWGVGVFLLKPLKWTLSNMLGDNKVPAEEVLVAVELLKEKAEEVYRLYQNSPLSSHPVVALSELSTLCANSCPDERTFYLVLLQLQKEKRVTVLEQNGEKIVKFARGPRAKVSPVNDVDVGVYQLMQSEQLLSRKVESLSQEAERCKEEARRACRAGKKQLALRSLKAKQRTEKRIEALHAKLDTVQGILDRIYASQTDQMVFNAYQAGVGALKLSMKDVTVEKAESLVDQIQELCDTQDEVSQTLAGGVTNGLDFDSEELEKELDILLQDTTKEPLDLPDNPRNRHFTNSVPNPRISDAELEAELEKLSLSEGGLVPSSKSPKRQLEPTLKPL
The description is as above.

B1: HA-CHMP4B (protein, UniProt Q9H444 1-224)
chain: T2 sequence
In the case of B1, the binding result in the assay with GST-CC2D1B (human) is reported as “binds”.

B2: HA-CHMP7 Ct (residues 238–453) (domain or fragment, UniProt Q8WUX9 238-453)
chain: DVGVYQLMQSEQLLSRKVESLSQEAERCKEEARRACRAGKKQLALRSLKAKQRTEKRIEALHAKLDTVQGILDRIYASQTDQMVFNAYQAGVGALKLSMKDVTVEKAESLVDQIQELCDTQDEVSQTLAGGVTNGLDFDSEELEKELDILLQDTTKEPLDLPDNPRNRHFTNSVPNPRISDAELEAELEKLSLSEGGLVPSSKSPKRQLEPTLKPL
For B2, the binding result with GST-CC2D1B (human) is “binds”.

B3: HA-CHMP7 full-length (protein, UniProt Q8WUX9 1-453)
chain: T4 sequence
For B3, the binding entry (in the assay with GST-CHMP4B [1]; in assay [2]; with GST-CC2D1B (human)) was “binds” throughout.

B4: HA-CC2D1B residues 162–493 (domain or fragment, UniProt Q5T0F9 162-493)
chain: ASQGLHALLEERIHNYREAAASAKEAGEAAKARRCERGLKTLESQLASVRRGRKINEDEIPPPVALGKRPLAPQEPANRSPETDPPAPPALESDNPSQPETSLPGISAQPVSDLDPDPRALLSSRQREYKVAALSAKRAGELDRARELMRIGKRFGAVLEALEKGQPVDLSAMPPAPEDLKPQQASQAPTAPSVIPPAVERVQPVMAPDVPATPVAPTESQTVLDALQQRLNKYREAGIQARSGGDERKARMHERIAKQYQDAIRAHRAGRKVNFAELPVPPGFPPIPGLESTMGVEEDAVAATLAAAEKLASAEDSAPADKDEDEPPGHLQ
B4: the binding result is recorded as “binds” in the assay with GST-CHMP4B [3] and “no binding” with GST-CHMP7.

B5: YFP-CC2D1B (protein, UniProt Q5T0F9 1-858)
chain: T1 sequence
Turning to B5, the binding entry in the assay with GST-CHMP4B [1] is reported as “binds”.

B6: HA-CHMP7 Nt (residues 1–238) (domain or fragment, UniProt Q8WUX9 1-238)
chain: MWSPEREAEAPAGGDPAGLLPPEWEEDEERMSFLFSAFKRSREVNSTDWDSKMGFWAPLVLSHSRRQGVVRLRLRDLQEAFQRKGSVPLGLATVLQDLLRRGELQRESDFMASVDSSWISWGVGVFLLKPLKWTLSNMLGDNKVPAEEVLVAVELLKEKAEEVYRLYQNSPLSSHPVVALSELSTLCANSCPDERTFYLVLLQLQKEKRVTVLEQNGEKIVKFARGPRAKVSPVNDVD
For B6, in the assay with GST-CC2D1B (human), the binding result is recorded as “no binding”.

B7: HA-CC2D1B residues 162-594 (domain or fragment, UniProt Q5T0F9 162-594)
chain: ASQGLHALLEERIHNYREAAASAKEAGEAAKARRCERGLKTLESQLASVRRGRKINEDEIPPPVALGKRPLAPQEPANRSPETDPPAPPALESDNPSQPETSLPGISAQPVSDLDPDPRALLSSRQREYKVAALSAKRAGELDRARELMRIGKRFGAVLEALEKGQPVDLSAMPPAPEDLKPQQASQAPTAPSVIPPAVERVQPVMAPDVPATPVAPTESQTVLDALQQRLNKYREAGIQARSGGDERKARMHERIAKQYQDAIRAHRAGRKVNFAELPVPPGFPPIPGLESTMGVEEDAVAATLAAAEKLASAEDSAPADKDEDEPPGHLQGEPPAQAPVAKKPARPTVPSSQRLPEPRASSSKESPSPSVREQLALLEARKLQYQRAALQAKRSQDLEQAKAYLRVAKWLEAQIIQARSGRPVDLSKVPSP
As to B7, the binding result in the assay with GST-CHMP4B [3] and in the assay with GST-CHMP7 was “binds” in each case.

B8: HA-CHMP3 (protein, UniProt Q9Y3E7 1-222)
chain: MGLFGKTQEKPPKELVNEWSLKIRKEMRVVDRQIRDIQREEEKVKRSVKDAAKKGQKDVCIVLAKEMIRSRKAVSKLYASKAHMNSVLMGMKNQLAVLRVAGSLQKSTEVMKAMQSLVKIPEIQATMRELSKEMMKAGIIEEMLEDTFESMDDQEEMEEEAEMEIDRILFEITAGALGKAPSKVTDALPEPEPPGAMAASEDEEEEEEALEAMQSRLATLRS
With B8, the binding entry in the assay with GST-CC2D1B (human) is given as “no binding”.
